Earlier results as cited in PMC9967956, “Efficacy of Trichoderma longibrachiatum Trichogin GA IV Peptaibol analogs against the Black Rot Pathogen Xanthomonas campestris pv. campestris and other Phytopathogenic Bacteria” (Microorganisms, 2023).
Where a SMILES comes first, the peptide text is derived from it. [ ]: non-standard residue; d: D form. The star is where a group is joined. Leu(ol) = CC(C)C[C@H](N)CO; Octanoyl = CCCCCCCC(=O)*; Aib = CC(C)(N)C(=O)O

Tested on: B. cinerea
Settings: cited from earlier work
For `CCCCCCCC(=O)NC(C)(C)C(=O)N[C@@H](CCCCN)C(=O)N[C@@H](CC(C)C)C(=O)NC(C)(C)C(=O)NCC(=O)NCC(=O)N[C@@H](CC(C)C)C(=O)NC(C)(C)C(=O)NCC(=O)N[C@H](C(=O)N[C@H](CO)CC(C)C)[C@@H](C)CC` [Peptide 2] (Octanoyl-[Aib]KL[Aib]GGL[Aib]GI[Leu(ol)]), the “Efficacy towards B. cinerea” value is given as “poorly effective”. For “nOct-Aib-Gly-Leu-Aib-Lys-Aib-Leu-Aib-Gly-Ile-Lol [Peptide 6, full-length synthetic analog of trichogin GA IV]”, the “Efficacy towards B. cinerea” value is given as “poorly effective”. In the case of “nOct-Aib-Lys-Leu-Aib-Gly-Lys-Leu-Aib-Gly-Ile-Lol [Peptide 7, full-length synthetic analog of trichogin GA IV]”, the “Efficacy towards B. cinerea” value is listed as “poorly effective”. In the case of “nOct-Aib-Lys-Leu-Aib-Lys-Gly-Leu-Aib-Gly-Ile-Lol [Peptide 1, full-length synthetic analog of trichogin GA IV]”, the “Efficacy towards B. cinerea” value is listed as “poorly effective”.
